Where a chain is given by its changes, count along the chain named. Each block holds one molecule with its values, some of them ahead of it.
Key:
[1] = target: T1, human CEACAM7 (Homo sapiens, UniProt Q14002); test: SPR binding to human CEACAM7; conditions: data not shown
T1 construct: purchased R&D Systems 9010-CM-050
T1 sequence (Q14002 36-242): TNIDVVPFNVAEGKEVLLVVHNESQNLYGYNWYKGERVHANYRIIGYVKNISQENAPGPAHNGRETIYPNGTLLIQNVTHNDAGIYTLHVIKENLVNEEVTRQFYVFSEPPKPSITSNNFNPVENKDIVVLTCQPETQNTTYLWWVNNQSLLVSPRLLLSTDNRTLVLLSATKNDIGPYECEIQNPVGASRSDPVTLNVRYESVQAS
Description: (§1) The CEACAM5 mAbs were similarly examined for binding to human CEACAM8 (R&D Systems catalog #9639-CM-050).

[2] = target: T2, human CEACAM8 (Homo sapiens, UniProt P31997); test: SPR binding to human CEACAM8; conditions: data not shown
T2 construct: purchased R&D Systems 9639-CM-050
T2 sequence (P31997 35-320): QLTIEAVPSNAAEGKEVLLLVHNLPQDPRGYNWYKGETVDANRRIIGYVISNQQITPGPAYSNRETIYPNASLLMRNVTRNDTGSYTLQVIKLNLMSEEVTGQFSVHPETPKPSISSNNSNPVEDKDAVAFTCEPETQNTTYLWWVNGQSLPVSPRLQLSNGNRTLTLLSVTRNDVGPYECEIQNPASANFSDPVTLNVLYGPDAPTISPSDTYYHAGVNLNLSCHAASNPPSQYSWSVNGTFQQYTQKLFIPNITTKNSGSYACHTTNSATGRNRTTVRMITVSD
Description: as §1

[3] = system: human CEACAM1 (CHO-S) and human CEACAM6 (HCT-116); test: Non-specific binding to cell lines engineered to express human CEACAM1 and human CEACAM6; conditions: HCT-116 (CEACAM6), FIG. 8A, 8B
Description: Note that these progeny were also made in a hIgG1 form 1 as opposed to the hIgG1.3f form described in this Example. Both the hIgG1 form and the hIgG1.3f form shared the same heavy chain variable region and the same light chain variable region, i.e., only the CH2 regions of heavy chain were adapted, such that their binding characteristics would be expected to be similar.

[4] = system: MKN45; test: Internalization of progeny antibodies (Incucyte, pHrodo red), Example 9; assay type: cell-based; conditions: hIgG1 progeny, 25 nM mAb, Table 13B
Procedure: Antibodies were evaluated for internalization using HCT-116-huCEACAM5, HCT-116-cyCEACAM5, and MKN45 cell lines.
(§2) The MKN45 or Ls174T cells were seeded at 10K cells/well (50 uL).
(§3) Cell lines were first analyzed for cell density and viability using a Vi-cell viability machine. The cell lines were diluted to 0.2E6 vc/mL in growth media, and a volume (50 uL) of each was dispensed to a flat-bottom 96-well plate to achieve cell counts of 10K cells/well. Ls174T media included MEM with 10% HI-FBS and 1% pen/strep. MKN45 media included RPMI (ATCC modification) with 10% HI-FBS and 1% pen/strep. HCT-116 media included McCoy's 5a with 10% HI-FBS, 1% pen/strep, and 6 μg/mL Blasticidin. Cells were allowed to adhere to wells of the 96-well plate (Corning Cat. No. 3595) at 37° C./5% CO2 for approximately 4 hours.
(§4) Each test mAb and control mAb was labeled by first pre-mixing the respective antibody with a pHrodo red (Fab conjugated to pH-sensitive; Thermo cat #Z25612) secondary reagent at a 3:1 dye:mAb molar ratio. A series of dilutions were prepared at 2× target concentration in growth media. The final mAb target concentration was 25 nM. A volume (50 uL) of labeled mAb samples were added to the plated cells to achieve a target mAb concentration (25 nM).
(§5) Coated plates contacted with the labeled mAbs were incubated at 37° C. for 30 minutes. Each plate was then read using an Incucyte apparatus, which collected images from the red and phase channels [10× objective; 3 images/well] for a 24-hour duration, with reads of plates every 30 minutes.

[5] = system: Ls174T; test: as above; assay type: cell-based; conditions: hIgG1 progeny, 25 nM mAb, Table 13B
Procedure: as §2, §3
as §4, with “A volume (50 uL) of labeled mAb samples were added to the plated cells to achieve a target mAb concentration (25 nM).” left out
as §5

[6] = system: BxPC3 cells and MKN45 cells as target cells; test: ADCC Jurkat-NFAT-FcγRIIIa (Promega) reporter cell assay; assay type: cell-based; conditions: six hours co-incubation with Jurkat-FcγRIIIa effector cells
Procedure: FIGS. 11A-11B are graphs showing the ADCC activity of anti-human CEACAM5 mAbs in Jurkat-NFAT-FcγRIIIa (Promega) cell assays across CEACAM5-medium expressing BxPC3 (FIG. 11A) and CEACAM5-high expressing MKN45 (FIG. 11B) cells.
ADCC activity was also analyzed with anti-human lead CEACAM5 mAbs in a Jurkat-NFAT-FcγRIIIa (Promega)cell assay (catalog number G9901) using BxPC3 cells and MKN45 cells as target cells. […] Jurkat-FcγRIIIa effector cells were then co-incubated with targets cells for six hours. NFAT activation, reflecting the induced ADCC response, was assessed by determining luciferase activity.

[7] = target: T3, full-length human CEACAM5 (Homo sapiens, UniProt P06731, T210S); test: SPR kinetics of progeny antibodies (BIACORE), Example 8; assay type: binding; conditions: hIgG1 progeny antibodies, Table 12B
T3 construct: The SPR kinetics against full-length human and cyno CEACAM5 were set up as follows
T3 sequence (P06731 35-702 T210S): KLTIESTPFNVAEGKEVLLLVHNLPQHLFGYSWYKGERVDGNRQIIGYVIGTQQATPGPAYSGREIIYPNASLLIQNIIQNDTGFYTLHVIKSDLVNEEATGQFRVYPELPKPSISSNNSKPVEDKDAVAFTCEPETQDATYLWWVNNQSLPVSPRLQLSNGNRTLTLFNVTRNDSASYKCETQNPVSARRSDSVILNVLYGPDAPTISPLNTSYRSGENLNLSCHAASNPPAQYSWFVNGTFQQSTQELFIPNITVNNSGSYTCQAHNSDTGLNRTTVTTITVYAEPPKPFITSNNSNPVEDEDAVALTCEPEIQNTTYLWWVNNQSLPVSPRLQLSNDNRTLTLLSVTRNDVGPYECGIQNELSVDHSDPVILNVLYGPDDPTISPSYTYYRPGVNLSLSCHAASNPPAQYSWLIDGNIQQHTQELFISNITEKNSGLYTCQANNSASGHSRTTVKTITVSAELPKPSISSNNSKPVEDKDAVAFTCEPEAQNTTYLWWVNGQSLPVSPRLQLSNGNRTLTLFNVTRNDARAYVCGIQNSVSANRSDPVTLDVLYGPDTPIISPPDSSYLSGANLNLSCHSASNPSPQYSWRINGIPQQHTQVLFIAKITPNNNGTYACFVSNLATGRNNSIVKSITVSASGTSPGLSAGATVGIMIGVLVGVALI

[8] = system: full-length cyno CEACAM5; test: as above; assay type: binding, cynomolgus; conditions: hIgG1 progeny antibodies, Table 12B; for Kd: read-out: cyCEACAM5 KD

binding to human CEACAM7 by SPR [1]: No binding was observed | binding to human CEACAM8 [2]: no binding was observed | huCEACAM5 ka [7]: 42000 M⁻¹ s⁻¹ | huCEACAM5 kd [7]: 0.000982 s⁻¹ | Kd [8]: 43.1 nM
B1: MBP003: hIgG1 progeny of MBN001; VH SEQ ID NO: 51, VL SEQ ID NO: 52; IgG1.3f antibody MBP004 (antibody, V domains shown)
VH: QVQLVESGGGVVQPGRSLRLSCAASGITFSSHGMHWVRQAPGKGLEWVTFISYDGSYKSYVDSVKGRFTISRDNSKNTLYLQMNSLRAEDTAVYYCATGLTGTGAFDIWGQGTMVTVSS
VL: [about 100 residues not shown]
non-specific human CEACAM1 and human CEACAM6 cross-reactivity [3]: absence of non-specific human CEACAM1 and human CEACAM6 cross-reactivity | MKN45 24 hr red/phase AUC (internalization) [4]: 2.62 | Ls174T 24 hr red/phase AUC (internalization) [5]: 0.67 | ADCC activity (NFAT activation, luciferase) [6]: limited ADCC activity | cyCEACAM5 ka [8]: 26400 M⁻¹ s⁻¹ | cyCEACAM5 kd [8]: 0.00114 s⁻¹

binding to human CEACAM7 by SPR [1]: No binding was observed | binding to human CEACAM8 [2]: no binding was observed | huCEACAM5 ka [7]: 43300 M⁻¹ s⁻¹ | huCEACAM5 kd [7]: 0.000228 s⁻¹ | Kd [8]: 13.3 nM
B2: MBP002: hIgG1 progeny of MBN001; VH SEQ ID NO: 49, VL SEQ ID NO: 50; IgG1.3f antibody MBP008 (antibody, V domains shown)
VH: B1 VH with G104N, F106L
VL: [about 100 residues not shown]YTFGQGTKLEIK
non-specific human CEACAM1 and human CEACAM6 cross-reactivity [3]: absence of non-specific human CEACAM1 and human CEACAM6 cross-reactivity | MKN45 24 hr red/phase AUC (internalization) [4]: 2.58 | Ls174T 24 hr red/phase AUC (internalization) [5]: 0.72 | ADCC activity (NFAT activation, luciferase) [6]: limited ADCC activity | cyCEACAM5 ka [8]: 37800 M⁻¹ s⁻¹ | cyCEACAM5 kd [8]: 0.000502 s⁻¹
